This list was built around the results that the source calls inconclusive (neither active nor inactive); the mix of calls is not that of the screen. The source made the active and inactive calls. Calls follow the shape of the dose curve; as a rule, active = well fitted curve in either direction with a large enough effect (not every such curve was filed as active); inconclusive = small, poorly fitted or top-dose-only effect, or another doubt; inactive = flat fitted curve, though single readings scatter.
Assay: NFAT Signaling Pathway (AID 444);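 also: carbachol stimulus at about its EC50 of 1 µM final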
Settings: Jurkat NFAT-bla M1, carbachol, beta-lactamase ratio, 5 h; at 17.2 µM (top of the series) unless noted
Outline: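 Jurkat cells carrying an NFAT-driven β-lactamase reporter and co-transfected muscarinic M1 receptor were treated with compound plus carbachol (1 uM final, an EC50 level) for 5 h at 37 °C. CCF4 loading followed for 1 h at RT; 460/530 nm ratio gave %activity.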
% is scaled to controls: 0 for no effect and ±100 for the full control effect.

SMILES | activity change, negative = inhibition
CCCCOc1ccc(-c2nnc(N)s2)cc1 | inactive: 25.3%
COc1ccc(/C(O)=C2/C(=O)C(=O)N(c3nc(C)c(C)s3)C2c2ccco2)cc1 (configuration not stated) | inactive: 21.3%
COc1ccc(/C(O)=C2/C(=O)C(=O)N(CCN3CCOCC3)C2c2ccccn2)cc1 (configuration not stated) | inactive: 6.7%
CC(O)CNc1nc2c(c(=O)n(C)c(=O)n2C)n1Cc1cccc(C(F)(F)F)c1 (configuration not stated) | inactive: 4.56%
c1ccc(-n2c(Cc3cccnc3)nc3cnccc32)cc1 | inactive: 15.3%
COc1ccc(NC(=O)N2CC[C@@]3(CCCN(C(=O)c4cccn4C)C3)C2)cc1 | inactive: 4.79% [at 7.69 µM]
CC1(C)S[C@@H]2[C@H](NC(=O)[C@@H](N)c3ccc(O)cc3)C(=O)N2[C@H]1C(=O)O | inactive: -4.29%
CCOC(=O)C1=Nc2ccccc2C1=[N+]=[N-] | inconclusive: -96% [inhibitor]
CN(C)Cc1ccc(-c2cc3onc(-c4ccccc4)c3c(=O)n2C)cc1 | inconclusive: -60.9% [inhibitor] [at 7.69 µM]
Cc1ccc(OCC(=O)N2CCC(N3CCCCCC3)CC2)cc1 | inconclusive: -42.5% [inhibitor]
O=C(O)/C=C\C(=O)Nc1cccc2c1-c1ccccc1C2=O | inconclusive: 5.05% [inhibitor] [at 7.69 µM]
Cc1cccc(C)c1NC(=O)CSCC(=O)c1ccc(O)c(O)c1 | inactive: 22.8%
COc1ccccc1CN1CCCC2(CCN(C(=O)c3ccco3)CC2)C1 | inconclusive: -63.2% [inhibitor] [at 7.69 µM]
CC1(C)Nc2ccc(O)cc2-c2c1ssc2=S | inactive: 19.6%
CCOc1ccc(C2C=C(c3ccccc3)Nc3ncnn32)cc1 (configuration not stated) | inconclusive: -31.7% [inhibitor]
N#C/C(=C\Nc1ccccn1)C(=O)C1CC1 | inactive: 5.1% [at 7.69 µM]
O=C(O)C1CSCN1S(=O)(=O)c1cccc2nsnc12 (configuration not stated) | inactive: 4.31%
C#C[C@]1(O)CC[C@@H]2[C@H]3CCC4=Cc5oncc5C[C@]4(C)[C@@H]3CC[C@@]21C | inconclusive: -80.2% [inhibitor]
COCCN(Cc1ccccc1)P(=O)(O)c1ccccc1OCC(=O)O | inactive: -4.16%
NC(=O)C/C=C\CC(N)=O | inactive: 10.3% [at 7.69 µM]
Cc1nc2ccccc2nc1N1CCCC1 | inactive: 0.00129% [at 7.69 µM]
COc1cc(C)nc(Oc2ccc(=O)[nH]n2)n1 | inactive: -26.6%
CCOC(=O)C(C)c1nc2ccccc2[nH]c1=O (configuration not stated) | inactive: -0.784%
O=C(O)CCNc1ncnc2nc[nH]c12 | inconclusive: 309% [activator] [at 7.69 µM]
COc1ccc(C(=O)N2CCC3(CCCN(Cc4ccccc4OC)C3)CC2)cc1 | inconclusive: -50.7% [inhibitor] [at 7.69 µM]
CSC1=Nc2sc3c(c2C2=NCCN12)CC(C)(C)OC3 | inconclusive: -53.6% [inhibitor]
O=C(O)c1[nH]c2c([N+](=O)[O-])cc([N+](=O)[O-])cc2c1C(=O)O | inactive: 2.5% [at 7.69 µM]
